In all, about 310,000 compounds went through this assay and about 14,000 (4.5%) showed an effect of 50% or more. Effects have a minus sign here. The list shows a part of the results.
Target: human ether-à-go-go-related gene (hERG) potassium channel (human, UniProt Q12809)
Experiment: primary screen, population patch clamp on CHO cells stably expressing hERG
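Also: peak tail current of the secondary pulse compared with the same well before compound.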

Chain of human ether-à-go-go-related gene (hERG) potassium channel (Q12809 whole entry, looked up): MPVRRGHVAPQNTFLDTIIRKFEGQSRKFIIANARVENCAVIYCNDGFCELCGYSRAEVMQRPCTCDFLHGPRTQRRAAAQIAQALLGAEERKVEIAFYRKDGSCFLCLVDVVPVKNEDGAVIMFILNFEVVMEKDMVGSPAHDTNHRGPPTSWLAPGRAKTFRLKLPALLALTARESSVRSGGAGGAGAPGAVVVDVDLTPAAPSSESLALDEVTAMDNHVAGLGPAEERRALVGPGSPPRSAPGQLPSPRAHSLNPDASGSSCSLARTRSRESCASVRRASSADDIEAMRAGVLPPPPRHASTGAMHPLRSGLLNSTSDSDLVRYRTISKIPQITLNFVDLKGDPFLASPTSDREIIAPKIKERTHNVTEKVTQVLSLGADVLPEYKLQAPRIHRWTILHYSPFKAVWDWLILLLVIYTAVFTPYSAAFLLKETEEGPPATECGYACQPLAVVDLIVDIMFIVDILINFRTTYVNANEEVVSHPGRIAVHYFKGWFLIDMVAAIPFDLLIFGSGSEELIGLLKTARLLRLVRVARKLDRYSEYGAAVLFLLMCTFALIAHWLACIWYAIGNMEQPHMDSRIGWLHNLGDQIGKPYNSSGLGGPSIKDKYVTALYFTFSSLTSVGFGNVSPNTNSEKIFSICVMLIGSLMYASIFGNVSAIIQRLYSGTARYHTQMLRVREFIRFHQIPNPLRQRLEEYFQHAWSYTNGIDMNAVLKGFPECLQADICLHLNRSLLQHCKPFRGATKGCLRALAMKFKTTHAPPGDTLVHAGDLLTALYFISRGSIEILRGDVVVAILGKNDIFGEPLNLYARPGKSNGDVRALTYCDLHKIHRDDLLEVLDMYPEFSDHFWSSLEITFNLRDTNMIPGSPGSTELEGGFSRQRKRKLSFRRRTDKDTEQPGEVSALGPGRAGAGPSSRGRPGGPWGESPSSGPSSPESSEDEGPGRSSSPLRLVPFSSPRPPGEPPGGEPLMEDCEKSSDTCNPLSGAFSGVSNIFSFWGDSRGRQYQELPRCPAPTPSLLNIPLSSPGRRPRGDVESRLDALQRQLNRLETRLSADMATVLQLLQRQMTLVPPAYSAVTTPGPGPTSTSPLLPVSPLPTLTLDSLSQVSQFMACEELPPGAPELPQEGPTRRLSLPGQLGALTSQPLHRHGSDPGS

Row | SMILES | hERG current change (%, negative = inhibition) at 10uM [%]
1 | Cc1ccc(C(C)C)c(OCc2nn(CC(=O)c3ccc(OC(F)F)cc3)c3[n+]2CCCCC3)c1.[Br-] | -72.5
2 | N#CC1=C(N)N(c2ccccc2)C2=C(C(=O)CCC2)C1c1ccsc1 (stereo not drawn) | -27.2
3 | CCOc1cccc2sc(N(CCN(C)C)C(=O)c3cc4ccccc4cc3OC)nc12.Cl | -68.1
4 | O=C(CCc1ccc(CCC(=O)c2cccs2)s1)c1cccs1 | 4.49
5 | O=C(O)c1ccc(Cl)c(NC(=S)NC(=O)c2cccc(COc3ccccc3)c2)c1 | 30.4
6 | Oc1cccc(/C=N/Nc2ncnc3c2ncn3Cc2ccccc2)c1 | -11.4
7 | COc1ccccc1NC(=O)c1cc[n+]([O-])cc1 | 15.8
8 | C/C(=N\NC(=O)c1cc(-c2ccc(C)s2)[nH]n1)c1ccncc1 | -1.13
9 | CCOC(=O)C1(CCc2ccccc2)CCN(C2Cc3ccccc3C2)CC1 | -64.8
10 | CC1CCN(CCCN2C(=O)C3C(C(=O)Nc4cccc(Cl)c4)C4C=CC3(O4)C2C(=O)NC2CCCCC2)CC1 (stereo not drawn) | 2.22
11 | CCC(CC)N1CCN(Cc2nc3ccc([N+](=O)[O-])cc3c(=O)n2-c2ccccc2F)CC1 | -57
12 | O=C(N1CCOCC1)N1CCN(S(=O)(=O)c2ccc(F)cc2)CC1 | 9.8
13 | CN(C)S(=O)(=O)c1ccc(N2CCCC2)c(C(=O)N2CCN(S(=O)(=O)c3ccccc3F)CC2)c1 | -6.1
14 | C/C(=N\Nc1cccc(Cl)c1)c1ccc(-n2ccnc2)cc1 | 2.23
15 | CCC1=C(OC(=O)N(CC)CC)N2C(=O)OC(=NCCc3c[nH]c4ccccc34)[C@]2(Cc2ccccc2)[C@H]2C1=CC[C@H]1C(=O)NC(=O)[C@H]12 | 9.22
16 | Cn1c(C(=O)NC2CCCCC2)cc2sccc21 | -7.87
17 | O=C(Nc1ccc(C(=O)O)cc1)/C(=C\c1cccc([N+](=O)[O-])c1)NC(=O)c1ccc(Br)o1 | 32.7
18 | COc1ccccc1CNC(=O)COC(=O)c1nccnc1N | 26.7
19 | COc1ccc2c(c1)nc(SCC(O)c1ccccc1)n2C (stereo not drawn) | -60.2
20 | COc1ccc(COC(=O)N/N=C(\C)CC(=O)Nc2ccc(Cl)cc2)cc1 | -40.9
21 | CN1CCN(C(=O)/C=C/c2c(F)cccc2Cl)CC1 | -6.29
22 | CN1CCN(Cc2nc3ccccc3c(=O)n2Cc2nc(-c3ccc([N+](=O)[O-])cc3)cs2)CC1 | -73.8
23 | CCN(CC)C(=O)C(=O)c1cccn1-c1c(Cl)cccc1C#N | 7.17
24 | CN(C)/N=C/c1ccc(Sc2ccc([N+](=O)[O-])cc2[N+](=O)[O-])o1 | 7.3
25 | CN(Cc1ccc(F)cc1)C(=O)c1sccc1-c1ccccc1 | 0.217
26 | Cc1cc(C)n(C(=O)C23CC4CC(CC(C4)C2)C3)n1 | 29.2
27 | CCC(Sc1nc2ccncc2[nH]1)C(=O)Nc1ccc(C)c(Cl)c1 (stereo not drawn) | -34.7

Row | SMILES | hERG current change (%, negative = inhibition) at 10uM [%]
28 | CCOC(=O)N/N=C/c1cn(Cc2ccc(F)cc2)c2ccccc12 | 3.37
29 | O=C(CSc1nc2ccccc2c(=O)n1-c1ccccc1F)NC1CCS(=O)(=O)C1 (stereo not drawn) | -57
30 | CCCCc1cc2c(cc1NC(=O)CN1CCCCC1)OCCO2.Cl | 3.82
31 | Cc1ccc(-c2nn(-c3ccccc3)cc2CO)o1 | -0.28
32 | Oc1ccc(CN2CCN(c3ccccc3)CC2)c2cccnc12 | 0.392
33 | Cc1c(N=C2SCC(=O)N2/N=C/c2ccccc2)c(=O)n(-c2ccccc2)n1C | -2.35
34 | CC(C)OCCCNC(=O)C(NC(=O)c1ccc(Cl)cc1)C(C)C (stereo not drawn) | 15.2
35 | CC1C(C#N)=C(N)OC2=C1C(=O)CC(c1ccccc1)C2 (stereo not drawn) | -5.87
36 | CC1=C(N2CCOCC2)CCC1=O | 12.4
37 | Cc1cc(=O)[nH]c2nnc(SCC(=O)N3CC(C)OC(C)C3)n12 (stereo not drawn) | 5.43
38 | Cc1cc(C)nc(NS(=O)(=O)c2ccc(N/C=C\C(=O)c3ccc(Cl)cc3)cc2)n1 | 9.03
39 | Cc1cc(NC(=O)CSc2nnc(-c3ccccc3F)n2C)no1 | 3.71
40 | COc1ccccc1/C=C1/SC(=S)N(C(C)C(=O)NC2C=CS(=O)(=O)C2)C1=O (stereo not drawn) | 12.9
41 | Cc1cc(C)c(C)c(OCC(O)CN2CCN(c3ccccn3)CC2)c1.Cl (stereo not drawn) | -54.4
42 | COC(=O)c1cccc(NC(=O)c2cccnc2C(=O)O)c1C | 24.5
43 | CC(Cc1cccs1)NC(=O)c1cccs1 (stereo not drawn) | 16.7
44 | COc1ccc(S(=O)(=O)NCC2CCCN(C(=O)CSC)C2)cc1 (stereo not drawn) | 21.7
45 | COc1ccc(OC)c(/C=C/C(=O)OCC(=O)Nc2cccc(C(C)=O)c2)c1 | 5.38
46 | O=C(Nc1ccc(S(=O)(=O)NC2=NCCCCC2)cc1)c1ccccc1Cl | 0.281
47 | Cc1ccc(C2C(C#N)=C(N)Oc3cc(N)ccc32)cc1 (stereo not drawn) | 8.21
48 | O=S1(=O)CC(O)C(N=Nc2c(O)n(Cc3ccccc3)c3ccccc23)C1 (stereo not drawn) | 3.21
49 | COc1ccc(C(=O)Nc2ccc(N3CCN(C)CC3)cc2)cc1 | -15
50 | Cc1c(Cl)ccc2c(C(=O)NCCN3CCCCC3)cc(-c3ccccn3)nc12 | -24.6
51 | CCOC(=O)N1CCC(N2CC34C=CC(O3)C(C(=O)Nc3ccc(C(C)C)cc3)C4C2=O)CC1 (stereo not drawn) | -21.8
52 | Cc1cc(C)cc(-n2c(C)c3c(C)nnc(C)c3c2C)c1 | -21.4
53 | NC(=O)CSc1nnc(-c2ccc(S(=O)(=O)N3CCCCC3)cc2)n1-c1ccccc1 | -14.2
54 | Cc1ncc(CO)c2c1Oc1nc(-c3ccccc3)nc(SCC(=O)N(C)c3ccccc3)c1C2 | 13.1
